The campaign covered roughly 110,000 compounds. About 230 (0.21%) showed an effect of 50% or more. The list shows a part of the results.
biological target: DPAP1 (Plasmodium falciparum, UniProt Q8IIJ9); assay: primary screen, percent inhibition; read by cleavage of a fluorogenic dipeptide substrate; higher = more effect of the substance; parameters: species or system P. falciparum D10 trophozoite lysates; single well
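Note: 30 min substrate incubation versus DMSO and 10 µM JCP410 controls.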

DPAP1, sequence (Q8IIJ9 whole entry, looked up): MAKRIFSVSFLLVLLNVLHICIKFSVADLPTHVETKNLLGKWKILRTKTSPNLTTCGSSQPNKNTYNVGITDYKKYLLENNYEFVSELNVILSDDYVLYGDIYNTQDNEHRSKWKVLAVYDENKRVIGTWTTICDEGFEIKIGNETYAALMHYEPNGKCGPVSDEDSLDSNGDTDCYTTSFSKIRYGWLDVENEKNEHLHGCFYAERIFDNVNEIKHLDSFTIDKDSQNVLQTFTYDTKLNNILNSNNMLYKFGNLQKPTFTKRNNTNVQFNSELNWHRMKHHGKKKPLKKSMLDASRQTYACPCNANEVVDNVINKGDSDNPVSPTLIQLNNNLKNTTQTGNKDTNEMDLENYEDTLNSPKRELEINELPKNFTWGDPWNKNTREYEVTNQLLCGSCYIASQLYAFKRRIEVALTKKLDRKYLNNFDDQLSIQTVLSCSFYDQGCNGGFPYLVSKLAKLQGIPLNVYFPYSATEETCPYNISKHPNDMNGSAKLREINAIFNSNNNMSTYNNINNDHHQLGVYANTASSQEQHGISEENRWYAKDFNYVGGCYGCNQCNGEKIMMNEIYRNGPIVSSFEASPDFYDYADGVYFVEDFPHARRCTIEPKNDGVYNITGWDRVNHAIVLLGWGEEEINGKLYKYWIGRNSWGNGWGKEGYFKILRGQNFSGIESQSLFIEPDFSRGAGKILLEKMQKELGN

Compared with `CCN(CC)CCCNC(=O)Cn1c2ccccc2c2cnnc(O)c21`, `CCCN(CCC)CCCNC(=O)c1c(C)nn(-c2ccc(F)cc2)c1-n1cccc1` is higher in “% Inhibition @ 10 uM” value: -3.79% for the first, -0.231% for the second.

Compared with `COc1cc(-c2cc(C(=O)O)c3c(-c4ccc(C)cc4)[nH]nc3n2)cc(OC)c1O`, `COc1cc(OC)cc(-c2cc3nc(C)c(CCC(=O)NC(C)c4cccs4)c(C)n3n2)c1` (stereo not shown) is higher in “% Inhibition @ 10 uM” value: -10% for the first, 2.93% for the second.

Compared with `O=C1NC(c2ccccc2)=NC1(Nc1ccc(Cl)cn1)C(F)(F)F` (stereo not shown), `Cc1ccc(-n2c(S)nnc2-c2ccccc2)cc1` is higher in “% Inhibition @ 10 uM” value: -3.33% for the first, 0.0538% for the second.

Going from `CCC1CCCCN1C(=O)Cn1c(=O)n(Cc2ccccc2)c(=O)c2c3c(sc21)CCC3` (stereo not shown) to `O=C(c1ccc(Cn2c(=O)[nH]c3ccsc3c2=O)cc1)N1CCCCC1`, the “% Inhibition @ 10 uM” value falls from -5.88% to -6.5%.

Compared with `O=C(NCCc1ccccc1)c1ccc(Cl)cc1`, `CCN(C(=O)c1ccc(NC(C)=O)cc1)c1ccccc1` is higher in “% Inhibition @ 10 uM” value: 0.035% for the first, 4.04% for the second.

First: CC(C)c1ccc(-n2cccc2/C=C2/C(=N)N3C=CSC3=NC2=O)cc1
Second: Cc1cccn2c(=O)c3cc(S(=O)(=O)c4ccc(Cl)cc4)c(=N)n(C4CCCCC4)c3nc12
The “% Inhibition @ 10 uM” value of the first is higher: 0.208% for the first, -1.44% for the second.

Compared with `COc1ccc(-c2csc3ncn(Cc4ccccc4F)c(=O)c23)cc1`, `COc1ccc(C(=O)CC2(O)C(=O)Nc3ccccc32)cc1` (stereo not shown) is higher in “% Inhibition @ 10 uM” value: -3.67% for the first, 3.06% for the second.

Compared with `CSc1oc(-c2ccccc2)nc1S(=O)(=O)c1ccc(C)cc1`, `Cc1ccc(C(=O)n2nc(-c3ccccc3)nc2NCc2ccco2)cc1` is higher in “% Inhibition @ 10 uM” value: -1.29% for the first, 8.5% for the second.

First: N#C/C(=C\C=C\c1ccccc1)c1nc(O)c2ccccc2n1
Second: Cc1nc2c(cnn2-c2ccccc2)c(=O)n1-c1ccccc1
The “% Inhibition @ 10 uM” value of the first is higher: 2.26% for the first, 0.177% for the second.

Going from `Brc1ccc2c(c1)[C@H]1OCC[C@H]1[C@@H](c1cccs1)N2` to `COc1ccc(Br)cc1C1SCCN1S(=O)(=O)c1ccc(C)cc1C` (stereo not shown), the “% Inhibition @ 10 uM” value falls from -0.737% to -5.26%.

Going from `COc1ccc(OC)c(N2C(=O)C3C(c4ccc(C)cc4)OC4(C(=O)c5ccccc5C4=O)C3C2=O)c1` (stereo not shown) to `O=C1c2ccccc2C(=O)N1c1cccc(N2C(=O)c3ccccc3C2=O)n1`, the “% Inhibition @ 10 uM” value rises from -7.89% to 0.431%.

Compared with `CN1CCN(CC(O)COCC2COc3ccccc3O2)CC1` (stereo not shown), `Clc1cccc(CN2CCN(Cc3ccccc3)CC2)c1` is higher in “% Inhibition @ 10 uM” value: -4.21% for the first, 3.16% for the second.

Compared with `Cc1ccc(C(=O)Nc2nc(-c3nnn(-c4cc(F)ccc4F)c3C)ns2)cc1`, `Cc1ccc(NCC(=O)c2ccc(-c3ccccc3)cc2)cc1` is higher in “% Inhibition @ 10 uM” value: -1.04% for the first, -0.294% for the second.

Compared with `CC(=O)c1c(C)oc2ccc(N(C(=O)c3ccncc3)S(=O)(=O)c3cc(C)c(C)cc3C)cc12`, `COc1cc(/C=C2/SC(=O)N(CC(=O)Nc3ccccc3C)C2=O)ccc1O` is lower in “% Inhibition @ 10 uM” value: 5.37% for the first, -5% for the second.

Going from `O=[N+]([O-])c1cccc(CN2CCCCCC2)c1` to `COc1cccc(CN2CCN(C3CCCCCC3)CC2)c1OC`, the “% Inhibition @ 10 uM” value rises from -1.77% to 3.56%.

First: CCOC(=O)c1cnc2ccc(Cl)cc2c1O
Second: C=CCNC(=O)Nc1cnc2ccc(F)cc2c1O
The “% Inhibition @ 10 uM” value of the first is lower: 3.76% for the first, 3.84% for the second.

First: CCCCN(CC)CCCNC(=O)c1ccc2nc(N3CCCCC3)sc2c1
Second: COc1ccc(OC)c(NC(=O)C2CCCCC2)c1
The “% Inhibition @ 10 uM” value of the first is lower: -3.34% for the first, 0.231% for the second.

First: COc1cccc2sc(N(CCN(C)C)C(=O)CCS(=O)(=O)c3ccccc3)nc12
Second: COCCCN(C(=O)Nc1ccccc1)C(C)c1ccccn1 (stereo not shown)
The “% Inhibition @ 10 uM” value of the first is lower: -5.59% for the first, -3.26% for the second.

Going from `Brc1ccc(OCCCCn2ccnc2)cc1` to `Fc1cccc(CN2CCN(Cc3cccnc3)CC2)c1`, the “% Inhibition @ 10 uM” value rises from 2.22% to 17.9%.

First: Cc1nn(Cc2cccc(C(=O)NC34CC5CC(CC(C5)C3)C4)c2)c(C)c1Br
Second: O=C(NCCN1CCN(c2ccccc2)CC1)C12CC3CC(CC(C3)C1)C2
The “% Inhibition @ 10 uM” value of the first is lower: -3.13% for the first, -0.267% for the second.

First: Cc1c(C#N)c2ccccc2n1CC(=O)N1CCc2ccccc2C1
Second: Cc1cccc(CN2CCc3c([nH]c4ccccc34)C2)c1
The “% Inhibition @ 10 uM” value of the first is lower: 2.35% for the first, 3.1% for the second.

First: O=C(O)c1cc2nc3c(c(C(F)(F)F)n2n1)CCc1ccccc1-3
Second: COc1cccc(-c2nc(SCC(=O)N3CCCC3)n3[nH]c(=O)cc3n2)c1
The “% Inhibition @ 10 uM” value of the first is higher: 2.38% for the first, -5.72% for the second.

First: COc1ccc(CC(=O)N2N=C(C)CC2(O)C(F)(F)F)cc1 (stereo not shown)
Second: Cc1occc1C(=O)Nc1cccc(C(F)(F)F)c1
The “% Inhibition @ 10 uM” value of the first is lower: -6.59% for the first, -2.46% for the second.

First: O=C(NC1CCCC1)c1ccc(COc2cc(Cl)ccc2Cl)o1
Second: O=C(NCc1ccccc1)C(=O)NC1CCCCC1
The “% Inhibition @ 10 uM” value of the first is lower: -5% for the first, 2.94% for the second.

Going from `N#Cc1c(N)nc(SCC(=O)c2ccc(Cl)c(Cl)c2)c(C#N)c1-c1ccc(O)cc1` to `O=C(CCC(=O)Nc1ccc(F)c(Cl)c1)Nc1ccc(F)c(Cl)c1`, the “% Inhibition @ 10 uM” value falls from 14.1% to -3.18%.

First: Cc1nnc(NCC2CCCCC2)c2c1nnn2Cc1ccc(F)cc1
Second: CCc1ccc(C2CC(c3ccccc3OC)n3ncnc3N2)cc1 (stereo not shown)
The “% Inhibition @ 10 uM” value of the first is higher: 3.27% for the first, -1.86% for the second.

First: O=C(CN(C1CCCCC1)S(=O)(=O)c1ccc(Cl)cc1)N1CCOCC1
Second: CC1CCCC(C(=O)O)N1C(=O)CCS (stereo not shown)
The “% Inhibition @ 10 uM” value of the first is higher: -0.553% for the first, -0.807% for the second.

Compared with `COc1cc(C(=O)N2CCN(C3C4CC5CC(C4)CC3C5)CC2)cc(OC)c1OC` (stereo not shown), `COc1cccc(C2C(C#N)=C(N)N(c3nc[nH]n3)C3=C2C(=O)CCC3)c1OC` (stereo not shown) is higher in “% Inhibition @ 10 uM” value: -7.15% for the first, -5.63% for the second.

Going from `Cc1cc(NC(=O)C2CC3CCC2C3)no1` (stereo not shown) to `C=CCc1c(O)nc2n(c1=O)CCCS2`, the “% Inhibition @ 10 uM” value falls from 3.44% to -2.32%.

Going from `CCCC[C@H](NC(=O)C(Cc1c(F)cccc1F)NC(=O)c1ccc(-c2ccccc2Cl)cc1)C(=O)c1nc2ncccc2o1` (stereo partly shown) to `COC(=O)c1sccc1NC(=O)c1c(C)nn(-c2ccccc2)c1-n1cccc1`, the “% Inhibition @ 10 uM” value rises from -5.2% to -3.35%.

Compared with `CC(C)(C)Oc1ccc(C(=O)c2ccccc2)s1`, `CC(C)(C)C1C/C(=C/c2ccccn2)C(=O)/C(=C/c2ccccn2)C1` (stereo not shown) is lower in “% Inhibition @ 10 uM” value: -3.23% for the first, -4.65% for the second.

Going from `NC(=S)CCCc1c[nH]c2ccccc12` to `CCN1C(=O)/C(=C/c2ccc(Br)o2)S/C1=N/c1ccc(OC)cc1`, the “% Inhibition @ 10 uM” value rises from -3.81% to 15.6%.

Source: publication PMC6919601, “Identification of Plasmodium dipeptidyl aminopeptidase allosteric inhibitors by high throughput screening” (PLoS ONE, 2019)
